Publication PMC3740237
These are yes or no findings as the source states them, for the method shown. Some entries that bind do so weakly or less than the wild type. Where a sequence is shown, tags or fusion partners need not be part of it.

Key:
[1] = target: T1, JAM-C extracellular region fused to EGFP, GPI-anchored on CHO cells (UniProt Q9BX67); test: flow cytometry on cells; cell-to-cell binding: CHO cells expressing each adhesion molecule labelled with DiI or DiD, mixed 1:1, pelleted, on ice 1 h; doublets of one cell of each type detected by dual fluorescence; Ca2+- and Mg2+-free media
T1 sequence (chain, GPI anchor at the C-terminus (GPI signal of TRAIL receptor 3)): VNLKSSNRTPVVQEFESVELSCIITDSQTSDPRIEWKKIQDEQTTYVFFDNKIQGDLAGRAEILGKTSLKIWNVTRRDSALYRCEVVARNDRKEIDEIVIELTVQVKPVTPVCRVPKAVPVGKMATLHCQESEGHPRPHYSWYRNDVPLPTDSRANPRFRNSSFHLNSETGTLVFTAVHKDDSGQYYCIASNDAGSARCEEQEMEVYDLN

[2] = target: T2, JAM-B extracellular region fused to EGFP, GPI-anchored on CHO cells (UniProt P57087); test: flow cytometry on cells; protein-to-cell binding: wild-type or transfected CHO cells with 0.8 ug/ml biotinylated protein (legend: 1 ug/ml) for 1 h on ice, streptavidin-APC, FACSCalibur
T2 sequence (chain, GPI anchor at the C-terminus (GPI signal of TRAIL receptor 3)): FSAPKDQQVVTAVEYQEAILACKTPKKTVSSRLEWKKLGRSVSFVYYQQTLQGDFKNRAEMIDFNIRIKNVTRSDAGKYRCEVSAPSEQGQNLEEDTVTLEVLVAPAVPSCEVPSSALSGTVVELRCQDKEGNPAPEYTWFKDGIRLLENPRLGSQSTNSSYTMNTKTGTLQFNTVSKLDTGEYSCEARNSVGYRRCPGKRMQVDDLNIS

[3] = target: T3, biotinylated soluble JAM-B–EGFP fusion protein (UniProt P57087); test: SPR; Biacore X; biotin-JAM-B-EGFP or biotin-JAM-C-EGFP (8 ug/ml) immobilised on streptavidin chip; analyte JAM precomplexed with anti-GFP Ab (1:10 molar ratio, 1 h room temperature), injected 12 min, buffer 6 min; PBS with 0.005% Tween 20, pH 7.0; regeneration with 100 mM HCl
T3 sequence (chain, biotin on the Avitag (BirA)): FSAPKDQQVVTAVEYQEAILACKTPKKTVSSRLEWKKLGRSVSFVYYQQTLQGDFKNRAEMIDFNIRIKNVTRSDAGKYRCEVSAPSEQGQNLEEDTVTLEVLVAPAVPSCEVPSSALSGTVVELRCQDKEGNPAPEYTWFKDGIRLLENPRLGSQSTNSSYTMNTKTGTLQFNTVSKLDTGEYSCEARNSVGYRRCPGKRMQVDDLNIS

[4] = target: T4, biotinylated soluble JAM-C–EGFP fusion protein (UniProt Q9BX67); test: as above
T4 sequence (chain, biotin on the Avitag (BirA)): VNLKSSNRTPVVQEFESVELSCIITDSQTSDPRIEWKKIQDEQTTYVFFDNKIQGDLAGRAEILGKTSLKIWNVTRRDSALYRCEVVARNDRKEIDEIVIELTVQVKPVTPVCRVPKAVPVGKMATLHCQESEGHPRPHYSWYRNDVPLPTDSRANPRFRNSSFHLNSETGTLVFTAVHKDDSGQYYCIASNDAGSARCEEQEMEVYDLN

[5] = target: T1, JAM-C extracellular region fused to EGFP, GPI-anchored on CHO cells; test: flow cytometry on cells; protein-to-cell binding: wild-type or transfected CHO cells with 0.8 ug/ml biotinylated protein (legend: 1 ug/ml) for 1 h on ice, streptavidin-APC, FACSCalibur

Binder	binding [1]	binding [2]	binding [3]	binding [4]	binding [5]
JAM-B extracellular region fused to EGFP, GPI-anchored on CHO cells (receptor, UniProt P57087 29-238, GPI anchor at the C-terminus (GPI signal of TRAIL receptor 3)) FSAPKDQQVVTAVEYQEAILACKTPKKTVSSRLEWKKLGRSVSFVYYQQTLQGDFKNRAEMIDFNIRIKNVTRSDAGKYRCEVSAPSEQGQNLEEDTVTLEVLVAPAVPSCEVPSSALSGTVVELRCQDKEGNPAPEYTWFKDGIRLLENPRLGSQSTNSSYTMNTKTGTLQFNTVSKLDTGEYSCEARNSVGYRRCPGKRMQVDDLNIS	binds				
biotinylated soluble JAM-C–EGFP fusion protein (domain or fragment, UniProt Q9BX67 32-241, biotin on the Avitag (BirA)) VNLKSSNRTPVVQEFESVELSCIITDSQTSDPRIEWKKIQDEQTTYVFFDNKIQGDLAGRAEILGKTSLKIWNVTRRDSALYRCEVVARNDRKEIDEIVIELTVQVKPVTPVCRVPKAVPVGKMATLHCQESEGHPRPHYSWYRNDVPLPTDSRANPRFRNSSFHLNSETGTLVFTAVHKDDSGQYYCIASNDAGSARCEEQEMEVYDLN		binds	binds	no binding	
biotinylated soluble JAM-B–EGFP fusion protein (domain or fragment, UniProt P57087 29-238, biotin on the Avitag (BirA)) FSAPKDQQVVTAVEYQEAILACKTPKKTVSSRLEWKKLGRSVSFVYYQQTLQGDFKNRAEMIDFNIRIKNVTRSDAGKYRCEVSAPSEQGQNLEEDTVTLEVLVAPAVPSCEVPSSALSGTVVELRCQDKEGNPAPEYTWFKDGIRLLENPRLGSQSTNSSYTMNTKTGTLQFNTVSKLDTGEYSCEARNSVGYRRCPGKRMQVDDLNIS			no binding	binds	binds
